# Out of some 150,000 compounds screened, about 540 (0.36%) showed an effect of 50% or more. The list shows a part of the results.
# System: Plasmodium falciparum
# Assay: Primary screen in NF54 nanoGlo assay, in single point, at 2uM, 72h; a lower Z score goes with more inhibition
# Assay type: functional, Erythrocyte
# Conditions: timepoint 72 hour
Structure (SMILES),% Inhibition,Z score
Cc1cccc2c1cnn2CCC(=O)NC1CCCC1,28%,-3.76
Cc1noc(NCc2ccc(Cl)cc2)n1,48%,-5.43
CC(C)(C)OC(=O)n1ccc2cccc(S(=O)(=O)NC[C@H]3COCCO3)c21,-21%,2.24
COc1ccc2c(c1)CCc1c-2noc1-c1ccc(C)c(NC(=O)c2c(-c3ccccc3)noc2C)c1,-9%,1.31
COC(=O)CCc1csc(NCc2c(C(F)(F)F)cnn2C)n1,-5%,0.79
CC1(C)COCCN1C(=O)Cc1cnn(-c2ccccc2)n1,32%,-0.49
CS(=O)(=O)N1CCC[C@H]1C(=O)N1CCC2(CC1)Cc1cccc(c1)Oc1cccc(c1)CCNC2=O,9%,-1.21
CCC(=O)N1CCc2ccc(OCc3ccc(C(=O)N(C)Cc4ccccc4)o3)cc2[C@@H]1c1cccc(C)c1,-18%,1.71
CCN1CCC(CNC(=O)c2ccc(O)cc2C)(N(C)C)CC1,-7%,0.67
COCCN(C(=O)NCc1c(C)cc(C)[nH]c1=O)C1CC1,-19%,1.7
O=C(NCCc1ccc[nH]1)C1CC1c1ccc(F)c(F)c1 (configuration not stated),-12%,1.23
Cc1ccc(=O)n(CC(=O)N(CC(F)(F)F)c2ccccc2)n1,-18%,3.42
CC(C(=O)NCC1CCCO1)S(=O)(=O)CC(C)(C)C (configuration not stated),-5%,0.92
CCc1n[nH]c2c1CN(Cc1scnc1C)CC2,-4%,0.59
Cc1nc2c(C(=O)N3CCC4(CC3)Cc3cn(nn3)CCCOc3ccc(cc3)CCNC4=O)cccc2[nH]1,-3%,0.63
Cc1scc(C(=O)NCCN2CCOCC2)c1C,-8%,0.74
NC(=O)c1ccc(N2CCCCC2)c(N2C(=O)c3c(Cl)c(Cl)c(Cl)c(Cl)c3C2=O)c1,13%,-2.46
NC(=O)C1CCN(C(=O)c2cnn(-c3ncc4c(n3)-c3ccccc3CCC4)c2C2CC2)CC1,-8%,1.12
O=C([C@H]1CCN(c2cnn(Cc3ccccc3)c(=O)c2)C1)N1CCOCC1,-7%,0.96
Nc1ccnc(CN2CCC[C@H](c3n[nH]c(-c4ccccc4)n3)C2)n1,14%,-1.93
O=S(=O)(N1CCOCC1)N(Cc1cscn1)c1ccccc1,0%,-0.02

Structure (SMILES),% Inhibition,Z score
CCN(C)C(=O)c1cccc(Nc2c(Oc3ccc4c(c3)OCO4)cnn(-c3ccc(C)cc3)c2=O)c1,-7%,0.89
Cc1c(C(=O)NC[C@H]2CCCN(CC(C)C)C2)cnn1C1CCCC1,-14%,1.53
CCOCC(=O)N1CCC(c2ccsc2)CC1,-11%,1.64
Cc1n[nH]c(C)c1CNCCc1ccsc1,-6%,0.79
O=C(O)c1ccc(CNC(=O)C2CC23CCc2ccccc23)s1 (configuration not stated),-2%,0.34
O=C(Cn1c(CN2CCCCCC2)nc2ccccc21)N1CCCCCC1,-10%,1.48
O=S(=O)(Nc1nc2c(s1)CCCC2)c1ccc2ccccc2c1,-5%,0.56
COc1cc(NS(=O)(=O)c2cc3c(cc2Br)C[C@H](C)N3C(C)=O)cc(OC)c1,-5%,0.74
Cc1ccc(S(=O)(=O)NCC(=O)OCC(=O)N2CCCC2)cc1C,-7%,1
Cc1ccn2c(NC(=O)CCc3ccccc3)c(CCc3ccccc3)nc2c1,-9%,1.65
O=C(c1cscn1)N1CC[C@H](Oc2cnsn2)C1,-7%,1.31
Cc1ccncc1CC(=O)NCC1(c2ccc(Br)cc2Cl)CC1,-2%,0.19
c1cnc2c(CN3CC[C@@]4(CCCN(CC5CC5)C4)C3)cccc2c1,8%,-1.1
CC(C)(CC(N)=O)NC(=O)c1cscn1,-2%,0.31
C[C@@H]([C@H](O)c1ccc(O)cc1)n1cnc2nccnc2c1=O,-12%,2.35
CCCc1nn(-c2ccccc2Cl)c(C)c1C(=O)NCc1ccccn1,-1%,0.28
CC(C)C[C@H](NC(=O)c1cccnc1)c1nc2ccccc2[nH]1,-19%,2.4
CCn1cc(CN2CCC[C@@]3(CO)CN(c4cnccn4)CC[C@H]23)cn1,-5%,0.99
Cc1cccc(C(=O)NCCCCN2CCOCC2)n1,-4%,0.52
O=C([C@H](c1ccccc1)n1cnnn1)N1CC[C@@]2(O)CCCC[C@H]2C1,6%,-0.67

# Source: ChEMBL document CHEMBL4888484, “Replenishing the malaria drug discovery pipeline: Screening and hit evaluation of the MMV Hit Generation Library 1 (HGL1) against asexual blood stage Plasmodium falciparum ,using a nano luciferase reporter read-out” (2022)
